Experimental data from the supplement of paper PMC8728848.
Some of the results follow.

Key:
Test in all cases: glycan array binding signal (z-score within array); higher = stronger binding
Conditions in all cases: glycan notation: IUPAC condensed, linker removed
GalNAc(b1-3)GalNAc = target: GalNAc(b1-3)GalNAc
How it was run: (§1)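 Glycan array binding is given as a within-array Z-score, which can be read as non-binding when negative. The arrays, 3228 of them, came from the Consortium for Functional Glycomics database and were retained only where the protein sequence was available. Z-scores were averaged across arrays of the same protein sequence at different concentrations or buffers and across linkers.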

GalNAc(b1-4)GlcNAc = target: GalNAc(b1-4)GlcNAc
How it was run: as §1

Glc(a1-4)Glc = target: Glc(a1-4)Glc
How it was run: as §1

Glc(a1-6)Glc(a1-6)Glc = target: Glc(a1-6)Glc(a1-6)Glc
How it was run: as §1

Glc(b1-4)Glc = target: Glc(b1-4)Glc
How it was run: as §1

Glc(b1-6)Glc = target: Glc(b1-6)Glc
How it was run: as §1

GlcA(b1-3)Gal = target: GlcA(b1-3)Gal
How it was run: as §1

GlcA(b1-3)GlcNAc = target: GlcA(b1-3)GlcNAc
How it was run: as §1

GlcA(b1-6)Gal = target: GlcA(b1-6)Gal
How it was run: as §1

[1] = target: GlcNAc(a1-3)Gal(b1-4)GlcNAc
How it was run: as §1

[2] = target: GlcNAc(a1-6)Gal(b1-4)GlcNAc
How it was run: as §1

[3] = target: GlcNAc(b1-2)Gal(b1-3)GalNAc
How it was run: as §1

[4] = target: GlcNAc(b1-2)Man(a1-3)[GlcNAc(b1-2)Man(a1-6)]Man(b1-4)GlcNAc(b1-4)GlcNAc
How it was run: as §1

GlcNAc(b1-3)Gal = target: GlcNAc(b1-3)Gal
How it was run: as §1

[5] = target: GlcNAc(b1-3)Gal(b1-3)GalNAc
How it was run: as §1

GlcNAc(b1-3)Gal(b1-4)Glc = target: GlcNAc(b1-3)Gal(b1-4)Glc
How it was run: as §1

[6] = target: GlcNAc(b1-3)Gal(b1-4)GlcNAc
How it was run: as §1

[7] = target: GlcNAc(b1-3)Gal(b1-4)GlcNAc(b1-3)Gal(b1-4)GlcNAc
How it was run: as §1

GlcNAc(b1-3)GalNAc = target: GlcNAc(b1-3)GalNAc
How it was run: as §1

GlcNAc(b1-3)Man = target: GlcNAc(b1-3)Man
How it was run: as §1

[8] = target: GlcNAc(b1-3)[GlcNAc(b1-4)][GlcNAc(b1-6)]GlcNAc
How it was run: as §1

[9] = target: GlcNAc(b1-3)[GlcNAc(b1-6)]Gal(b1-4)GlcNAc
How it was run: as §1

[10] = target: GlcNAc(b1-3)[GlcNAc(b1-6)]GalNAc
How it was run: as §1

[11] = target: GlcNAc(b1-4)Gal(b1-4)GlcNAc
How it was run: as §1

GlcNAc(b1-4)GlcNAc = target: GlcNAc(b1-4)GlcNAc
How it was run: as §1

[12] = target: GlcNAc(b1-4)GlcNAc(b1-4)GlcNAc
How it was run: as §1

[13] = target: GlcNAc(b1-4)GlcNAc(b1-4)GlcNAc(b1-4)GlcNAc(b1-4)GlcNAc
How it was run: as §1

[14] = target: GlcNAc(b1-4)GlcNAc(b1-4)GlcNAc(b1-4)GlcNAc(b1-4)GlcNAc(b1-4)GlcNAc
How it was run: as §1

[15] = target: GlcNAc(b1-4)[GlcNAc(b1-6)]GalNAc
How it was run: as §1

[16] = target: GlcNAc(b1-6)Gal(b1-4)GlcNAc
How it was run: as §1

GlcNAc(b1-6)GalNAc = target: GlcNAc(b1-6)GalNAc
How it was run: as §1

GlcNAc3Prop(b1-4)GlcNAc = target: GlcNAc3Prop(b1-4)GlcNAc
How it was run: as §1

Kdn(a2-3)Gal(b1-3)GlcNAc = target: Kdn(a2-3)Gal(b1-3)GlcNAc
How it was run: as §1

Kdn(a2-3)Gal(b1-4)GlcNAc = target: Kdn(a2-3)Gal(b1-4)GlcNAc
How it was run: as §1

[17] = target: Man(a1-2)Man(a1-2)Man(a1-3)Man
How it was run: as §1

[18] = target: Man(a1-2)Man(a1-2)Man(a1-6)[Man(a1-3)]Man
How it was run: as §1

Man(a1-2)Man(a1-3)Man = target: Man(a1-2)Man(a1-3)Man
How it was run: as §1

[19] = target: Man(a1-2)Man(a1-3)[Man(a1-2)Man(a1-6)]Man
How it was run: as §1

[20] = target: Man(a1-2)Man(a1-3)[Man(a1-2)Man(a1-6)]Man(a1-6)[Man(a1-2)Man(a1-2)Man(a1-3)]Man
How it was run: as §1

[21] = target: Man(a1-2)Man(a1-3)[Man(a1-2)Man(a1-6)]Man(a1-6)[Man(a1-2)Man(a1-2)Man(a1-3)]Man(b1-4)GlcNAc(b1-4)GlcNAc
How it was run: as §1

[22] = target: Man(a1-2)Man(a1-3)[Man(a1-6)]Man(a1-6)[Man(a1-2)Man(a1-3)]Man(b1-4)GlcNAc(b1-4)GlcNAc
How it was run: as §1

[23] = target: Man(a1-2)Man(a1-6)[Man(a1-3)]Man(a1-6)[Man(a1-2)Man(a1-2)Man(a1-3)]Man
How it was run: as §1

[24] = target: Man(a1-2)Man(a1-6)[Man(a1-3)]Man(a1-6)[Man(a1-2)Man(a1-2)Man(a1-3)]Man(b1-4)GlcNAc(b1-4)GlcNAc
How it was run: as §1

Man(a1-3)[Man(a1-6)]Man = target: Man(a1-3)[Man(a1-6)]Man
How it was run: as §1

[25] = target: Man(a1-3)[Man(a1-6)]Man(a1-6)[Man(a1-2)Man(a1-3)]Man(b1-4)GlcNAc(b1-4)GlcNAc
How it was run: as §1

[26] = target: Man(a1-3)[Man(a1-6)]Man(a1-6)[Man(a1-3)]Man
How it was run: as §1

[27] = target: Man(a1-3)[Man(a1-6)]Man(a1-6)[Man(a1-3)]Man(b1-4)GlcNAc(b1-4)GlcNAc
How it was run: as §1

[28] = target: Man(a1-3)[Man(a1-6)]Man(b1-4)GlcNAc(b1-4)GlcNAc
How it was run: as §1

Man(a1-6)Man = target: Man(a1-6)Man
How it was run: as §1

Man(b1-4)GlcNAc = target: Man(b1-4)GlcNAc
How it was run: as §1

Neu5Ac(a2-3)Gal = target: Neu5Ac(a2-3)Gal
How it was run: as §1

[29] = target: Neu5Ac(a2-3)Gal(b1-3)GalNAc
How it was run: as §1

[30] = target: Neu5Ac(a2-3)Gal(b1-3)GalNAc(b1-3)Gal(a1-4)Gal(b1-4)Glc
How it was run: as §1

[31] = target: Neu5Ac(a2-3)Gal(b1-3)GalNAc(b1-3)Gal(b1-4)GlcNAc
How it was run: as §1

[32] = target: Neu5Ac(a2-3)Gal(b1-3)GalNAc(b1-4)[Neu5Ac(a2-3)]Gal(b1-4)Glc
How it was run: as §1

[33] = target: Neu5Ac(a2-3)Gal(b1-3)GalNAc6S
How it was run: as §1

[34] = target: Neu5Ac(a2-3)Gal(b1-3)GlcNAc
How it was run: as §1

[35] = target: Neu5Ac(a2-3)Gal(b1-3)GlcNAc(b1-3)Gal(b1-3)GlcNAc
How it was run: as §1

[36] = target: Neu5Ac(a2-3)Gal(b1-3)GlcNAc6S
How it was run: as §1

B1: L-Selectin (Homo sapiens), P14151 (protein)
chain: MIFPWKCQSTQRDLWNIFKLWGWTMLCCDFLAHHGTDCWTYHYSEKPMNWQRARRFCRDNYTDLVAIQNKAEIEYLEKTLPFSRSYYWIGIRKIGGIWTWVGTNKSLTEEAENWGDGEPNNKKNKEDCVEIYIKRNKDAGKWNDDACHKLKAALCYTASCQPWSCSGHGECVEIINNYTCNCDVGYYGPQCQFVIQCEPLEAPELGTMDCTHPLGNFSFSSQCAFSCSEGTNLTGIEETTCGPFGNWSSPEPTCQVIQCEPLSAPDLGIMNCSHPLASFSFTSACTFICSEGTELIGKKKTICESSGIWSNPSPICQKLDKSFSMIKEGDYNPLFIPVAVMVTAFSGLAFIIWLARRLKKGKKSKRSMNDPY
glycan array binding signal (z-score) (GalNAc(b1-3)GalNAc): -0.275
glycan array binding signal (z-score) (GalNAc(b1-4)GlcNAc): -0.177
glycan array binding signal (z-score) (Glc(a1-4)Glc): -0.182
glycan array binding signal (z-score) (Glc(a1-6)Glc(a1-6)Glc): -0.18
glycan array binding signal (z-score) (Glc(b1-4)Glc): 0.823
glycan array binding signal (z-score) (Glc(b1-6)Glc): 0.406
glycan array binding signal (z-score) (GlcA(b1-3)Gal): 0.526
glycan array binding signal (z-score) (GlcA(b1-3)GlcNAc): 0.069
glycan array binding signal (z-score) (GlcA(b1-6)Gal): 0.493
glycan array binding signal (z-score) [1]: 0.002
glycan array binding signal (z-score) [2]: -0.154
glycan array binding signal (z-score) [3]: -0.298
glycan array binding signal (z-score) [4]: 0.06
glycan array binding signal (z-score) (GlcNAc(b1-3)Gal): 0.042
glycan array binding signal (z-score) [5]: -0.298
glycan array binding signal (z-score) (GlcNAc(b1-3)Gal(b1-4)Glc): -0.122
glycan array binding signal (z-score) [6]: -0.23
glycan array binding signal (z-score) [7]: -0.369
glycan array binding signal (z-score) (GlcNAc(b1-3)GalNAc): -0.4
glycan array binding signal (z-score) (GlcNAc(b1-3)Man): 0.338
glycan array binding signal (z-score) [8]: -0.302
glycan array binding signal (z-score) [9]: -0.304
glycan array binding signal (z-score) [10]: -0.343
glycan array binding signal (z-score) [11]: 0.119
glycan array binding signal (z-score) (GlcNAc(b1-4)GlcNAc): -0.086
glycan array binding signal (z-score) [12]: -0.247
glycan array binding signal (z-score) [13]: -0.169
glycan array binding signal (z-score) [14]: -0.297
glycan array binding signal (z-score) [15]: -0.375
glycan array binding signal (z-score) [16]: -0.479
glycan array binding signal (z-score) (GlcNAc(b1-6)GalNAc): -0.36
glycan array binding signal (z-score) (GlcNAc3Prop(b1-4)GlcNAc): -0.165
glycan array binding signal (z-score) (Kdn(a2-3)Gal(b1-3)GlcNAc): -0.259
glycan array binding signal (z-score) (Kdn(a2-3)Gal(b1-4)GlcNAc): -0.255
glycan array binding signal (z-score) [17]: -0.35
glycan array binding signal (z-score) [18]: -0.267
glycan array binding signal (z-score) (Man(a1-2)Man(a1-3)Man): 0.096
glycan array binding signal (z-score) [19]: -0.06
glycan array binding signal (z-score) [20]: -0.265
glycan array binding signal (z-score) [21]: -0.185
glycan array binding signal (z-score) [22]: -0.024
glycan array binding signal (z-score) [23]: 0.018
glycan array binding signal (z-score) [24]: -0.2
glycan array binding signal (z-score) (Man(a1-3)[Man(a1-6)]Man): -0.371
glycan array binding signal (z-score) [25]: -0.276
glycan array binding signal (z-score) [26]: -0.198
glycan array binding signal (z-score) [27]: -0.281
glycan array binding signal (z-score) [28]: -0.246
glycan array binding signal (z-score) (Man(a1-6)Man): -0.152
glycan array binding signal (z-score) (Man(b1-4)GlcNAc): -0.256
glycan array binding signal (z-score) (Neu5Ac(a2-3)Gal): -0.226
glycan array binding signal (z-score) [29]: 0.005
glycan array binding signal (z-score) [30]: -0.403
glycan array binding signal (z-score) [31]: -0.116
glycan array binding signal (z-score) [32]: 0.447
glycan array binding signal (z-score) [33]: -0.152
glycan array binding signal (z-score) [34]: -0.147
glycan array binding signal (z-score) [35]: -0.063
glycan array binding signal (z-score) [36]: -0.154
